Laboratory results as given in the BET-seq Pho4 binding data (Le et al. 2018).
The other results are listed elsewhere or left out. Values were computed here from the reads of four pooled replicates and scatter widely.

biological target: T1, Pho4 (S. cerevisiae) (UniProt P07270); test: relative binding free energy (BET-seq); higher = weaker binding; details: reference: library average
T1 sequence: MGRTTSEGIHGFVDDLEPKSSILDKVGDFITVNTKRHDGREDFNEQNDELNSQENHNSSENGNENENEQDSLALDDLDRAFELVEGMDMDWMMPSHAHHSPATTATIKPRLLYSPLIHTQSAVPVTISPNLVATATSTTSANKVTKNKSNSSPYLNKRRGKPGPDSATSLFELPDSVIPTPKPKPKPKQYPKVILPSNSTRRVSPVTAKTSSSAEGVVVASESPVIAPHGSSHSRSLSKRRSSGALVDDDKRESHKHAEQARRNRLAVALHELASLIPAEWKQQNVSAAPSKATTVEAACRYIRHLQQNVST

Row | Sequence | relative binding free energy [kcal/mol]
1 | GGTATCACGTGTTGCG | 0.12
2 | AGATTCACGTGGGTGG | 0.25
3 | TTACGCACGTGAGCGG | 0.14
4 | TGGGTCACGTGGGTCA | -0.01
5 | TCGGGCACGTGGTCGT | -0.11
6 | TAAAACACGTGGGTGC | 0.08
7 | TGGTTCACGTGTGAAA | 0.37
8 | TGTCTCACGTGGAGGG | 0.09
9 | GGTGACACGTGCTTAG | 0.02
10 | GGGGTCACGTGTAAGT | 0.35
11 | GCTTGCACGTGATTGG | 0.07
12 | TTATTCACGTGCGATA | 0.29
13 | TTGTTCACGTGAAACG | 0.31
14 | CGTGCCACGTGGGTTG | -0.23
15 | GGTAACACGTGAGAAG | 0.36
16 | GCGAACACGTGTGGGT | 0.15
17 | AAGGTCACGTGATAGT | 0.21
18 | TATGGCACGTGCGTTG | -0.07
19 | AAGTACACGTGGGTAT | -0.03
20 | AGGTTCACGTGAAGCG | 0.43
21 | AATATCACGTGGTGTA | -0.01
22 | AGTTTCACGTGAAGTC | 0.33
23 | AGGTCCACGTGGAGGT | -0.06

Row | Sequence | relative binding free energy [kcal/mol]
24 | TCGGTCACGTGTTAGT | -0.02
25 | GTGTTCACGTGGGGAC | 0.19
26 | GCTTTCACGTGTGGTC | 0.4
27 | TGGAGCACGTGAGGTA | 0.2
28 | AGTGCCACGTGTGGTG | -0.05
29 | TAATTCACGTGTGGCG | 0.31
30 | GTTTTCACGTGAGTAT | 0.23
31 | AGTGGCACGTGTTGAG | -0.06
32 | GATTACACGTGCTGTA | 0.24
33 | TGTGACACGTGTGGTT | 0.1
34 | TGAGGCACGTGATGCT | -0.01
35 | TATTGCACGTGAGGCA | 0.27
36 | ACGTTCACGTGGGATG | 0.01
37 | ACGTACACGTGAGTGT | 0.24
38 | ATGGGCACGTGAGAAG | 0.18
39 | GTGGGCACGTGGAGTT | 0.08
40 | CTTGGCACGTGGGGAC | -0.24
41 | TTTATCACGTGGTTTT | 0.24
42 | TGAGTCACGTGATCTT | 0.08
43 | TGCTGCACGTGGGCTG | -0.28
44 | TAGGCCACGTGCTTGG | -0.22
45 | AGGTGCACGTGCTTGA | -0.09
46 | GGTTACACGTGAGGTT | 0.26

Row | Sequence | relative binding free energy [kcal/mol]
47 | CTGCTCACGTGGGTGG | 0.09
48 | AAGTTCACGTGTAGCG | 0.21
49 | TCGTGCACGTGTCTGT | -0.11
50 | AAGAGCACGTGTTGAT | -0.02
51 | AAAGTCACGTGCTGGT | -0.04
52 | GATGGCACGTGGCGTT | -0.05
53 | CTAGTCACGTGATGTT | 0.19
54 | CCTTTCACGTGGTGGG | 0.33
55 | AGCGCCACGTGCGGGT | -0.14
56 | TTCGTCACGTGAGTTT | 0.49
57 | GTAGGCACGTGGGCGT | -0.19
58 | GCGTTCACGTGTTGGA | 0.31
59 | GTAAACACGTGGTCGG | -0.05
60 | TTTTGCACGTGAATGA | 0.19
61 | AAGGTCACGTGTAGGC | 0.09
62 | CATTTCACGTGTGTGA | 0.23
63 | TGGCTCACGTGGATAT | 0.24
64 | TGATTCACGTGATAGA | 0.28
65 | GATGCCACGTGGGTTG | -0.09
66 | TGTGTCACGTGCATGC | -0.1
67 | TTGTTCACGTGACGTC | 0.37
68 | TGGCACACGTGTGTAT | -0.03
69 | TGTTTCACGTGGAACT | 0.24

Row | Sequence | relative binding free energy [kcal/mol]
70 | AGGTCCACGTGGAGTT | 0.05
71 | CAGTGCACGTGTGTAT | -0.13
72 | TGCGTCACGTGGGCGA | 0
73 | ATAGGCACGTGTGGCA | -0.1
74 | TGGAGCACGTGATGGA | 0.02
75 | AGGGTCACGTGTGATT | 0.22
76 | CGGTGCACGTGGGATG | -0.08
77 | ATGGACACGTGCGGTT | 0
78 | AAAGGCACGTGATTTA | -0.01
79 | AGTAACACGTGTGTAT | -0.06
80 | TAAGGCACGTGTGTTC | 0
81 | CGTGGCACGTGGCGTC | -0.13
82 | GTAAGCACGTGTTTTG | -0.09
83 | TTTGGCACGTGGATAG | -0.13
84 | TAAGACACGTGGGGTG | -0.1
85 | GGTGTCACGTGCCGGG | 0.03
86 | TTGCGCACGTGTTTGA | -0.12
87 | AAGTACACGTGATTTG | 0.14
88 | GGGGGCACGTGCGGGG | -0.14
89 | GTGGGCACGTGAATGA | 0.21
90 | TGAGGCACGTGGCATG | -0.16
91 | GAGTGCACGTGCTTTG | -0.04
92 | ATGGCCACGTGTGAGG | 0

Row | Sequence | relative binding free energy [kcal/mol]
93 | ATGGACACGTGGTGAG | 0.05
94 | GCTTTCACGTGGGATG | 0.25
95 | CGGAGCACGTGGCAGG | -0.14
96 | GTATTCACGTGATTCT | 0.28
97 | GTAGTCACGTGGGCTG | -0.06
98 | ACGTGCACGTGGGGCT | -0.26
99 | CTCGGCACGTGGTGTG | -0.16
100 | TGGTGCACGTGATAAT | 0
101 | GTTTTCACGTGCTCGT | 0.16
102 | CGTGGCACGTGGTATC | -0.13
103 | AAGGTCACGTGAAGGA | 0.44
104 | GGATACACGTGTCGGT | 0.1
105 | ACAAGCACGTGGGTGT | -0.2
106 | TGGTACACGTGTTCAG | 0.03
107 | ATTCGCACGTGTATGG | -0.03
108 | ATTGTCACGTGTCAAG | 0.02
109 | CGGGTCACGTGGTTGA | 0.13
110 | GAGGGCACGTGGGTAA | -0.16
111 | TAGGTCACGTGGTCAT | -0.05
112 | CGTATCACGTGTAAGG | 0.14
113 | GAGTGCACGTGTGGAT | 0.03
114 | TGTTGCACGTGTTTGA | 0.07
115 | TGATGCACGTGATATG | 0.15
